The record followed here is the RNAGym collection of RNA variant scans (doi:10.7554/elife.90254).

The source gives no read counts; variants with many changes may rest on few reads.

B1: OR4K15 (parent)
chain: GUUAACGGUCAUAGGCCAUGGAAACUAGGAGCACCAUUUCGCUGCCAGUGAAGAAAUGAACAAAGAAAAUCUGGGCCAGGCAGGCAUCAAAAGAAAUAGUCUUGCGCUCAACCAGAAAGUCUGUAAUCAUUUUAAGGGUA

The data set covers variants of B1. Description: self-cleavage, relative activity (ratio to wild type); higher = more cleavage; in vitro, sequencing; the parent is a self-cleaving ribozyme.
For the variant GUUAACGGUCAUAGGCCAUGGAAACUAGGAGCACCAUUUCGCUGCCAGUGAAGAAAUGAUCAAAGAAAAUCUGGGCCAGGCAGGCAUCAAAAGAAAUAGCCUUGCGCUUGACCAGAAAGUCUGUAAUCAUUUUAAGGGUA, the self-cleavage stood at 0.03.
Regarding GUUAACGGUCAUAGGCCAUGGAAACUAGGAGCACCAUUUCGCUGCCAGUGAAGAAAUGAAUAAAGAAAAUCUGGGCCAGGCAGGCAUCAAAGGAAAUAGUCUAGCGCUCAACCAGAAAGUCUGUAAUCAUUUUAAGGGUA, the self-cleavage stood at 0.84.
Turning to GUUAACGGUCAUAGGCCAUGGAAACUAGGAGCACCAUUUCGCUGCCAGUGAAGAAAUGAAAAAAGAAAAUCUGGGCCAGGCAGGCAUCAAAGGAAAUAGUCUUGCGCUCAACCAGAAGGUCUGUAAUCAUUUUAAGGGUA, the self-cleavage came out at 1.43.
The figure for GUUAACGGUCAUAGGCCAUGGAAACUAGGAGCACCAUUUCGCUGCCAGUGAAGAAAUGAACGAAGAGAAUCUGGGCCAGGCAGGCAUCAAAAGAAAUAGUCUUGCGCUCAACCAGAAAGUCUGUAGUCAUUUUAAGGGUA is 1.56.
Take GUUAACGGUCAUAGGCCAUGGAAACUAGGAGCACCAUUUCGCUGCCAGUGAAGAAAUGAACGAAGAAGAUCUGGGCCAGGCGGGCAUCAAAAGAAAUAGCCUUGCGCUCACCCGGAAAGUCUGUAAUCAUUUUAAGGGUA: the self-cleavage came out at 0.02.
On to GUUAACGGUCAUAGGCCAUGGAAACUAGGAGCACCAUUUCGCUGCCAGUGAAGAAAUGAACGAGGAAAAUCAGGGCCAGGCAGGCAUCAAAAGAAAUAGUCUUGCGCUCAACCAGGAGGUCUGUAAUCAUUUUAAGGGUA, for which the self-cleavage was found to be 0.06.
For GUUAACGGUCAUAGGCCAUGGAAACUAGGAGCACCAUUUCGCUGCCAGUGAAGAAAUGAACGAAGAAAAUCUGGGCCAGGCUGGCAUCAAAAGAAGUAGUCUUGCGCUCAACCAGAAAGUCAGUAAUCAUUUUAAGGGUA, the self-cleavage is 0.24.
The figure for GUUAACGGUCAUAGGCCAUGGAAACUAGGAGCACCAUUUCGCUGCCAGUGAAGAAAUGAACCAAGAAAAUCUGGGCCAGGCAGGCACCAAAAGGAAUAGUCUUGCGCUCAACCAGAAAGUCUGUAAUCAUUUUAAGGGUA is 0.99; for GUUAACGGUCAUAGGCCAUGGAAACUAGGAGCACCAUUUCGCUGCCAGUGAAGAAAUGAACGAAGAAAGUCUGGGCCAGGCAGGCAUCAAAAGAAAUAGUCUUGCGCUCAACCAGAAAGUCUGUAAUCACUUUAAGGGUA it is 0.63.
With GUUAACGGUCAUAGGCCAUGGAAACUAGGAGCACCAUUUCGCUGCCAGUGAAGAAAUGAACGGAGAAAAUCUGGGCCAGGCUGGCAUCAAAAGAAAUAGUCUUGCGCUCAACCAGAAAGUCUGUAAUCAUUUUAAGGGUA, the self-cleavage was found to be 0.35.
On to GUUAACGGUCAUAGGCCAUGGAAACUAGGAGCACCAUUUCGCUGCCAGUGAAGAAAUGAACGAAGAUGAUCUGGGCCAGGCAGGCAUCAAAAGAAAUAGUCUUGCGCUCAACCAGAAAGUCCGUAAUCAUUUUAAGGGUA, for which the self-cleavage was found to be 1.23.
Turning to GUUAACGGUCAUAGGCCAUGGAAACUAGGAGCACCAUUUCGCUGCCAGUGAAGAAAUGAAUAAAGAAAACCUGGGCCAGGCAGGCAUCAAAAGAAAUAGUCUUGCGCCCAACCAGAAAGUCUGUAAUCAUUUUAAGGGUA, the self-cleavage worked out at 0.03.
The result for GUUAACGGUCAUAGGCCAUGGAAACUAGGAGCACCAUUUCGCUGCCAGUGAAGAAAUGAAUAAAGAAAAUCUGGGCCAGGCAGGCAUCAAAAGAAAUAGUCUUGCGCUCAACCAGAAGGUCUGUAGUCAUUUUAAGGGUA reads 0.8; that for GUUAACGGUCAUAGGCCAUGGAAACUAGGAGCACCAUUUCGCUGCCAGUGAAGAAAUGAACGAAGAACAUCUGGGCCAGGCAGGCAUCAAAAGAAAUAGUCUUGCGCUCAACCGGAAAGUCUGUAAUCAUUUUAAGGGUA, 0.29.
Consider GUUAACGGUCAUAGGCCAUGGAAACUAGGAGCACCAUUUCGCUGCCAGUGAAGAAAUGAACGAAGGAAAUCUGGGCCAGGCAGGCAUCAAAAGAAAUAGUCUUGCGCUCAACCAGAAAGUCUGUAAUCAUUUUAAGGGUG, for which the self-cleavage was found to be 1.59.
The result for GUUAACGGUCAUAGGCCAUGGAAACUAGGAGCACCAUUUCGCUGCCAGUGAAGAAAUGAAUAAAGAAAAUCUGGGCCAGGCAGGCAUCAAAAGAAAUAGUCUUGCGCUCAACCUGAAAGUCUGUUAUCAUUUUAAGGGUA reads 0.07; that for GUUAACGGUCAUAGGCCAUGGAAACUAGGAGCACCAUUUCGCUGCCAGUGAAGAAAUGAACCAAGAAAAUCUGGGCCAGGCAGGCACCAAAAGAAAUAGUCUUGCGCUCAACCAGAAAGUCCGUAAUCAUUUUAAGGGUA, 0.35.
On to GUUAACGGUCAUAGGCCAUGGAAACUAGGAGCACCAUUUCGCUGCCAGUGAAGAAAUGAACCAAGAAAAUCUGGGCCAGGCAGGCAUCAAAAGAAAUAGUCUUGCGCUCAACCAGGAAGUCCGUAAUCAUUUUAAGGGUA, for which the self-cleavage was determined as 0.46.
As to GUUAACGGUCAUAGGCCAUGGAAACUAGGAGCACCAUUUCGCUGCCAGUGAAGAAAUGAACGAAGAAAGUCUGGGCCAGGCAGGCAUCAGAAGAAAUAGUCUUGCGCUCGACCAGAAAGUCUGUAAUCAUUUUAAGGGUA, the self-cleavage was 0.12.
Turning to GUUAACGGUCAUAGGCCAUGGAAACUAGGAGCACCAUUUCGCUGCCAGUGAAGAAAUGAACGAAGGAAAUCUGGGCCAGGCAGGCAUCUAAAGAAAUAGUCUUGCGCUCAACCAGGAAGUCUGUAAUCAUUUUAAGGGUA, the self-cleavage worked out at 0.51.
For GUUAACGGUCAUAGGCCAUGGAAACUAGGAGCACCAUUUCGCUGCCAGUGAAGAAAUGAACGAGGAAAAUCUGGGCCAGGCAGGCAUCAAAAGAAAUAGUCUUGCACUCAACCAGAUAGUCUGUAAUCAUUUUAAGGGUA, the self-cleavage was determined as 0.03.
The result for GUUAACGGUCAUAGGCCAUGGAAACUAGGAGCACCAUUUCGCUGCCAGUGAAGAAAUGAACGAAGAAGAUCUGGGCCAGGCAGGCAUCAAAGGAAAUAGUCUUGCGCUCAACCAGAAAGUCUGUAAUCAUUUUAAGGGUA reads 1.04; that for GUUAACGGUCAUAGGCCAUGGAAACUAGGAGCACCAUUUCGCUGCCAGUGAAGAAAUGAAUAAAGAAAGUCUGGGCCAGGCAGGCAUCAAAAGAAAUAGCCUUGCGCUCAACCAGAAAGUCUGUAAUCAUUUUAAGGGUA, 2.07.
The figure for GUUAACGGUCAUAGGCCAUGGAAACUAGGAGCACCAUUUCGCUGCCAGUGAAGAAAUGAACCAAGAAAAUCUGGGCCAGGCAGGCAUCGGAAGAAAUAGUCUUGCGCUCAACCAGAAAGUCUGUAAUCAUUUUAAGGGUA is 1.24; for GUUAACGGUCAUAGGCCAUGGAAACUAGGAGCACCAUUUCGCUGCCAGUGAAGAAAUGAACGAAGAAAAUCUGGGCCAGGCAGGCGUCAAAAGAAAUAGUCUUGCGCUCAACCAGAAGGUCUGUAAUCAUUUUAAGGGUA it is 0.83; for GUUAACGGUCAUAGGCCAUGGAAACUAGGAGCACCAUUUCGCUGCCAGUGAAGAAAUGAACGAAGAAAAUCUGGGCCAGGCUGGCAUCAAAAGAAGUAGUCUUGCGCUCAACCAGAAAGUCUGUAAUCAUUUUAAGGGUA it is 0.12.
Take GUUAACGGUCAUAGGCCAUGGAAACUAGGAGCACCAUUUCGCUGCCAGUGAAGAAAUGAACGAAGAAAAUCUGGGCCAGGCGGGCAUCAAAAGAAAUAGUCUUGCGCUCAACCUGAAAGUCUGUAAUCAUUUUAAGGGUA: the self-cleavage is 0.04.
Regarding GUUAACGGUCAUAGGCCAUGGAAACUAGGAGCACCAUUUCGCUGCCAGUGAAGAAAUGAACGAAGAAAAUCUGGGCCAGGCAGGCAUCAGAAGAAAUAGUCUUGCGCUCAACCAGAAAGUAUGUAAUCAUUUUAAGGGUA, the self-cleavage stood at 1.87.
In the case of GUUAACGGUCAUAGGCCAUGGAAACUAGGAGCACCAUUUCGCUGCCAGUGAAGAAAUGAACGGAGAAAAUCUGGGCCUGGCAGGCAUCAAAAGAAAUAGUCUUGCGCUCAACCAGAAAGUCUGUAAUCAUUUUAAGGGUA, the self-cleavage is 0.35.
As for GUUAACGGUCAUAGGCCAUGGAAACUAGGAGCACCAUUUCGCUGCCAGUGAAGAAAUGAACGAAGAAAAUCUGGGCCAGGCAGGCUCCAAAAGAAAUAGUCUUGCGCUCAACCAGAAAGUCUGUAAUCAUUUUAAGGGUA, the self-cleavage worked out at 1.79.
The result for GUUAACGGUCAUAGGCCAUGGAAACUAGGAGCACCAUUUCGCUGCCAGUGAAGAAAUGAACGAAGAAGAUCUGGGCCAGGCAGGCAUCAAGGGAAAUAGUCUUGCGCCCAACCAGGAAGUCUGUAAUCAUUUUAAGGGUA reads 0.05; that for GUUAACGGUCAUAGGCCAUGGAAACUAGGAGCACCAUUUCGCUGCCAGUGAAGAAAUGAACGAAGAGAAUCUGUGCCAGGCAGGCAUCAAAAGAAAUAGUCUUGCGCUCAACCAGAAAGUCUGUAAUCAUUUUAAGGGUA, 0.21.
On to GUUAACGGUCAUAGGCCAUGGAAACUAGGAGCACCAUUUCGCUGCCAGUGAAGAAAUGAAUAGAGAAAAUCUGGGCCAGGCAGGCGUCAAAAGAAAUAGUCUUGCGCUCAACCAGAAAGUCUGUAAUCAUUUUAAGGGUA, for which the self-cleavage is 1.08.
GUUAACGGUCAUAGGCCAUGGAAACUAGGAGCACCAUUUCGCUGCCAGUGAAGAAAUGAACGAGGAAAAUCUGGGCCAGGCAGGCAUCAAAAGAAAUAGUCUUGCGCUCAUCCAGAAAGUCUGUAAUCAUUUUAAGGGUA: the self-cleavage worked out at 0.14.
On to GUUAACGGUCAUAGGCCAUGGAAACUAGGAGCACCAUUUCGCUGCCAGUGAAGAAAUGAACGAAGAACAUCUGGGCCAGGCAGGCAUCAAAAGAAAUAGUCUUGCGCUCAACCAGAAAGUCCGUAAUCAUUUUAAGGGUA, for which the self-cleavage turned out to be 2.03.
The result for GUUAACGGUCAUAGGCCAUGGAAACUAGGAGCACCAUUUCGCUGCCAGUGAAGAAAUGAAUAGAGAAAAUCUGGGCCAGGCAGGCAUCAAAAGAAAUAGUCUUGCGCUCAACCAGAAAGUCUGAAAUCAUUUUAAGGGUA reads 0.51; that for GUUAACGGUCAUAGGCCAUGGAAACUAGGAGCACCAUUUCGCUGCCAGUGAAGAAAUGAACGAAGAAAAUCUGGGCCAGGCAGGCGUCAAAAGAAAUAGUCUUGCGCUCAACCAGAAAGUCAGUAAUCAUUUUAAGGGUA, 1.06.
The result for GUUAACGGUCAUAGGCCAUGGAAACUAGGAGCACCAUUUCGCUGCCAGUGAAGAAAUGAACGAAGAAGAUCUGGGCCAGGCAGGCAUCAAAAGAAAUAGUCUUGCGCUCAACCAGAAAGACUGUAAUCAUUUUAAGGGUA reads 2.63.
Take GUUAACGGUCAUAGGCCAUGGAAACUAGGAGCACCAUUUCGCUGCCAGUGAAGAAAUGAACGAAGAGAGUCUGGGCCAGGCAGGCAUCAAAAGAAAUAGUCUUGCGCACAACCAGAAAGUCCGUAAUCAUUUUAAGGGUA: the self-cleavage was found to be 0.04.
For GUUAACGGUCAUAGGCCAUGGAAACUAGGAGCACCAUUUCGCUGCCAGUGAAGAAAUGAACCAAGAAAAUCUGGGCCUGGCAGGCAUCAAGAGAAAUAGUCUUGCGCUCAACCAGAAAGUCUGUAAUCAUUUUAAGGGUA, the self-cleavage is 0.08.
As for GUUAACGGUCAUAGGCCAUGGAAACUAGGAGCACCAUUUCGCUGCCAGUGAAGAAAUGAACGAAGGAGAUCUGGGCCGGGCAGGCAUCAAAAGAAAUAGUCUUGCGCUCAACCAGAAAGUCUGUAGUCAUUUUAAGGGUA, the self-cleavage is 0.07.
